In PubChem BioAssay AID624417 (National Center for Advancing Translational Sciences (NCATS), 2012):
Values joined by “and” are separate entries in the source; they are usually repeats but may differ in a detail not shown here. Equal entries are not always repeated. Hit rate of the full screen: of about 410,000 compounds, about 6,400 (1.6%) were called active. Inconclusive means that the source gave no clear call. Such entries were picked first, then a sample of the others. Calls follow the shape of the dose curve; as a rule, active = well fitted inhibition curve with a large enough effect; inconclusive = small, poorly fitted or top-dose-only effect; inactive = no such curve, though single readings can be large or run the other way. A potency beside an inconclusive call is a rough fit, not a confirmed value.

biological target: Glucagon-like peptide 1 receptor (Homo sapiens) (UniProt P43220); test: qHTS of GLP-1 Receptor Inverse Agonists (Inhibition Mode); details: HEK293 GLP-1R CRE-luciferase, luminescence, 24 h, GLP-1R form is constitutively active; series mostly up to 38.3 µM; also: nearly all actives have a fitted effect of over 55% in size
Chain of UniProt P43220 (P43220 whole entry, looked up): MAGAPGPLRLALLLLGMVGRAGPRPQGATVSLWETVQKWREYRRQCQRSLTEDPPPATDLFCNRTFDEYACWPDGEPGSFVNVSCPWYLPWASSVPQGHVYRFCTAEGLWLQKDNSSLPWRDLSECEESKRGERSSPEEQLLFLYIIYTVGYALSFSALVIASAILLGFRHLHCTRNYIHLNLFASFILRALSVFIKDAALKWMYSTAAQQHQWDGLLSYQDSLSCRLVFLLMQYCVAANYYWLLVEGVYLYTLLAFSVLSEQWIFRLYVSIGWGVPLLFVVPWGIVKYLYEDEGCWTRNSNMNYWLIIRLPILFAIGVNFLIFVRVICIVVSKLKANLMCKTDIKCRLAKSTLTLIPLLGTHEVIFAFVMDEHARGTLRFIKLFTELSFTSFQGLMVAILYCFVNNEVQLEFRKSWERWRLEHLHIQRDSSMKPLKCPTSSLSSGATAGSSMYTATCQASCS
Outline: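 Luminescence readout: a drop in cAMP-driven luciferase signal flags inverse agonism at a constitutively active GLP-1R stably expressed in HEK293. Compound exposure lasted 24 hr at 37 deg C, 5% CO2.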
Potency is read from the fitted curve at half-maximal effect; tags tell the direction and shape of the fitted curve.

Potency, inconclusive:
CCOc1ccc(Cl)cc1CNCCCSc1nc(C)cc(C)n1 11.2 µM [inhibitor, single point]
O=C1CCCN1c1ccc(S(=O)(=O)Oc2ccc(Cl)cc2)cc1[N+](=O)[O-] 5.62 µM [inhibitor, partial curve, poor fit]
Cc1ccccc1N1CCN(Cc2c[nH]c3ccccc23)CC1 20 µM [inhibitor, partial curve, poor fit]
CC(C)(C)OC(=O)NCCCC[C@H](NC(=O)c1nc[nH]c1C(=O)N[C@@H](CCCCNC(=O)OC(C)(C)C)C(=O)OC(C)(C)C)C(=O)OC(C)(C)C 28.2 µM [inhibitor, single point]
Cc1cc2c(SCc3ccccc3Cl)nc(N)nc2nc1C 3.55 µM [inhibitor, full curve, poor fit]
OC(CNC1CCCC1)COCCOc1ccc(Br)cc1 (stereo unspecified) 28.2 µM [inhibitor, single point]
CCN1CCN(c2ccc(NC(=O)c3ccc4c(c3)[nH]c(=O)n4Cc3ccc(OC)cc3)cc2)CC1 5.01 µM [inhibitor, partial curve]
NC(N)=N/N=C/c1ccc(Cl)cc1Cl 5.62 µM [inhibitor, partial curve, poor fit]
CCSc1oc(-c2ccco2)nc1S(=O)(=O)c1ccc(Br)cc1 12.6 µM [inhibitor, single point]
O=C(CCN1C(=O)S/C(=C\c2ccccc2)C1=O)NCCCn1ccnc1 2.24 µM [inhibitor, full curve]
CCC(C(=O)Nc1ccc(S(=O)(=O)N2CCN(C)CC2)cc1)c1ccccc1 (stereo unspecified) 10 µM [inhibitor, single point]
CCCN1CCC(NC(=S)Nc2ccc([N+](=O)[O-])cc2)CC1 14.1 µM [inhibitor, single point]
O=C(N/N=C/c1c[nH]c2ccc(Br)cc12)C1CC1 28.2 µM [inhibitor, single point]
CCn1cc(C(=O)N2CCN(c3cccc(Cl)c3)CC2)c2cc(OC)c(OC)cc2c1=O 0.501 µM [inhibitor, full curve, poor fit]
CCN(CC)S(=O)(=O)c1ccc2oc(Nc3ccc(OC)cc3)nc2c1 2 µM [inhibitor, full curve, poor fit]
Cc1ccc(CN2CCc3nc(Nc4ccc5c(c4)OCCO5)ncc3C2)cc1 25.1 µM [inhibitor, single point]
Cc1cc(C)nc(NC(=O)Cc2ccc(Cl)cc2)c1 28.2 µM [inhibitor, single point]
COC(=O)C1=CN(c2cccc(OCc3ccccc3)c2)C(N)=C(C#N)C1c1ccccc1 (stereo unspecified) 28.2 µM [inhibitor, single point]
CC1=C(c2ccc(C(C)C)cc2)S(=O)(=O)NC1=NCCCN1CCN(c2ccccc2F)CC1 12.6 µM [inhibitor, single point]
OCCNCCCCSc1ccc(Cl)cc1 11.2 µM [inhibitor, single point]
O=C(CN1CCCc2ccccc21)N/N=C/c1ccc(F)cc1F 28.2 µM [inhibitor, single point]
Cc1cc(C)nc(/N=C(\N)Nc2ccc(OCCC(C)C)cc2)n1 3.55 µM [inhibitor, full curve, poor fit]
CC(C)Oc1ccc(C(=O)NC2CCN(Cc3ccccc3)CC2)cc1 3.98 µM [inhibitor, partial curve, poor fit]
CCc1ccccc1OCCOc1ccc(C)cc1OC 10 µM [inhibitor, partial curve]
CN(C)S(=O)(=O)Oc1cccc(C(=O)Nc2cccc(Cl)c2)c1 7.08 µM [inhibitor, partial curve, poor fit]
OC(c1ccc(F)cc1)c1ncc(-c2ccc3ccccc3c2)[nH]1 (stereo unspecified) 20 µM [inhibitor, single point]
CCc1cccc(NC(=O)CCS(=O)(=O)c2cccc3nonc23)c1 28.2 µM [inhibitor, single point]
Cc1cc(C)c(C)c(S(=O)(=O)N2CCC(C(=O)N(C)Cc3nc4ccccc4c(=O)[nH]3)CC2)c1C 28.2 µM [inhibitor, single point]
C#CCSc1nc(-c2ccccc2)cc(-c2ccccc2)c1C#N 10 µM [inhibitor, single point]
CCN(CC)c1ccc(/C=N/NC(=O)c2c[nH]c3ccccc23)cc1 28.2 µM [inhibitor, single point]
CC1CCN(CCC(=O)Nc2ccc(Br)cc2)CC1 15.8 µM [inhibitor, partial curve, poor fit]
CCOC(=O)C(CSCC(=O)c1ccc(Cl)cc1Cl)NC(=O)OC(C)(C)C (stereo unspecified) 28.2 µM [inhibitor, single point]
CC1CCc2sc(C(=O)N(C)CC(=O)Nc3cccc(F)c3)cc2C1 (stereo unspecified) 11.2 µM [inhibitor, partial curve, poor fit]
O=C(NC(=S)NC1CCCc2ccccc21)c1ccco1 (stereo unspecified) 14.1 µM [inhibitor, partial curve, poor fit]
O=C(Nc1ccc(NC(=O)C2CCCCC2)nc1)c1cccc(F)c1 3.98 µM [inhibitor, partial curve, poor fit]
CCCNC(=O)NC(=O)CSc1nc2ccccc2n1CC(C)C 28.2 µM [inhibitor, single point]
CCOc1ccccc1NC(=O)c1cc(C(=O)c2cc(Br)ccc2O)coc1=N 10 µM [inhibitor, single point]
Cc1ccc(OCc2cc(C(=O)NCC(C)c3ccccc3)no2)cc1C (stereo unspecified) 3.55 µM [inhibitor, full curve, poor fit]
COC(=O)c1cc(-c2ccc(S(=O)(=O)N3CCCCC3)cc2)c(C(F)(F)F)s1 15.8 µM [inhibitor, single point]
OCC(Cc1ccccc1)Nc1c2ccccc2nc2ccccc12 (stereo unspecified) 28.2 µM [inhibitor, single point]
O=C(NCCCN1CCN(c2ccc(F)cc2)CC1)c1cnn(-c2ccc(F)cc2)c1-n1cccc1 10 µM [inhibitor, partial curve, poor fit]
CCOc1ccc(NC(=O)CN2CCN(CC(=O)c3ccc(OCC)cc3)CC2)cc1 28.2 µM [inhibitor, single point]
CCc1cccc(NS(=O)(=O)c2ccc(-n3cccn3)cc2)c1 12.6 µM [inhibitor, single point] and 15.8 µM [inhibitor, partial curve, poor fit]
CCCCS(=O)(=O)CC(O)CSc1nc(-c2ccc(C)cc2)cc(-c2ccccc2)c1C#N (stereo unspecified) 10 µM [inhibitor, partial curve, poor fit]
COc1cc(-c2c(-c3ccsc3)sc3ccccc23)cc(OC)c1OC 10 µM [inhibitor, partial curve, poor fit]
COc1ccc(NC(C)=O)cc1CNC(=O)COc1c(C)c(C)cc(C)c1C 8.91 µM [inhibitor, partial curve, poor fit]
O=C(O)c1cccc(-c2nnn(Cc3ccccc3)n2)c1 7.08 µM [inhibitor, partial curve, poor fit]

Potency, inactive:
OCCCNC(=S)Nc1ccc(Oc2ccccc2)cc1
O=C(COc1ccc(Cl)cc1Cl)Nc1nnc(C2=COCCO2)o1
Cc1oc(-c2cccs2)nc1CN1CCC(c2ccccc2)CC1
Cc1ccc(NC(=O)Cn2c(=O)c3ccccc3n3nncc23)cc1
Cc1ccc(OCCC(=O)Nc2cc(S(=O)(=O)N3CCOCC3)ccc2N2CCCC2)cc1
CCOc1ccc(CNC(=O)c2cnc3sc(N4CCOCC4)nn3c2=O)cc1
CCOC(=O)c1c(C)oc2c1c(C=NCC1CCCO1)c(O)c1ccccc12 (stereo unspecified)
COc1cc(NS(=O)(=O)c2cc3c(cc2C)N(C)CCO3)cc(OC)c1OC
COc1ccc(NC(=O)C2CCCN(c3ncnc4c3nc3n4CCCCC3)C2)c(OC)c1 (stereo unspecified)
COC(=O)c1ccc(CSc2nc(C)nc3sc(C)c(C)c23)o1
COC(=O)Oc1nsnc1N1CCOCC1
COC(=O)c1ccc2nc(-c3cccc(Br)c3)c(Cc3ccc(OC)cc3C)n2c1
CCNC(=O)CSc1nnc(C2CC2)n1-c1ccccc1
N#CNC(=Nc1ccccc1)SCc1ccc(C(=O)O)cc1
Cc1ccc2c(C)nc(Nc3nc(CSc4nc5ccccc5[nH]4)cc(=O)[nH]3)nc2c1
Cc1cccc(N2CCN(C(=O)COc3cc4oc(=O)cc(C)c4cc3Cl)CC2)c1C
COc1cccc(C(=O)Nc2cccc(-c3cn4ccsc4n3)c2)c1OC

Potency, active:
NC(=O)CC(NC(=O)c1ccc(Br)cc1)c1ccc(N2CCCCCC2)c([N+](=O)[O-])c1 (stereo unspecified) 11.2 µM
COc1ccc(CC(=O)NCC2CCCN(Cc3ccc(OC(F)(F)F)cc3)C2)cc1 (stereo unspecified) 10 µM
